The assay has as its system TYKNU. Description: fractional viability relative to vehicle; TYKNU is a high-grade serous ovarian cancer line; higher = less growth inhibition. The following applies: 72 h, genotype: OPA1 knockout (sgOPA1 #2). In a few lines: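 Drug treatment lasted 72 h, with cells grown at 37 °C in 5% CO2 in RPMI 1640 supplemented with 10% FBS. Beforehand, TYKNU control cells or their lentiCRISPRv2 knockout derivatives had been seeded at 500 cells per well into drug-stamped 384-well plates carrying a ~2100-compound library at 2 or 10 μM, in duplicate. Viability came from Cell Titer Glo luminescence, with averaged duplicate treatment wells normalised to duplicate control wells in the same plate position.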

Structures can show the parent of a compound that is named as a salt. Whole data set: some 2,000 compounds, median “fractional viability relative to vehicle” near 0.92, cut for the lowest 2% near 0.11. Some of the results follow.

For the compound `CCc1ccc(CCOc2ccc(CC3SC(=O)NC3=O)cc2)nc1` (stereo unspecified) [Pioglitazone], the fractional viability is, setting by setting: (2uM) 0.753; (10uM) 0.719.

On to `CCc1ccc(CCOc2ccc(CC3SC(=O)NC3=O)cc2)nc1` (stereo unspecified) [Pioglitazone HCl], for which the fractional viability is 0.939 (2uM) and 0.996 (10uM).

For `c1ccc(CC2=NCCN2)cc1` [Tolazoline HCl], the fractional viability by setting is: (2uM) 0.978; (10uM) 0.936.

For the compound `CC(C)(Oc1ccc(CCNC(=O)c2ccc(Cl)cc2)cc1)C(=O)O` [Bezafibrate], the fractional viability runs as follows: (2uM) 1.04; (10uM) 0.845.

For the compound `O=C(O)CCCc1c[nH]c2ccccc12` [3-Indolebutyric acid (IBA)], the fractional viability turned out to be 1.07 (2uM) and 0.965 (10uM).

Consider `O=C(c1cc(Cc2n[nH]c(=O)c3ccccc23)ccc1F)N1CCN(C(=O)C2CC2)CC1`, for which the fractional viability turned out to be 1.03 (2uM) and 0.936 (10uM).

`O=C1c2ccccc2C(=O)C1c1ccccc1` [Phenindione] gave a fractional viability (2uM) of 1.08 and a fractional viability (10uM) of 0.844.

As for `O=C(O)CCc1nc(-c2ccccc2)c(-c2ccccc2)o1` [Oxaprozin], the fractional viability runs as follows: (2uM) 1; (10uM) 0.923.

For `CC[C@H]1OC(=O)[C@H](C)[C@@H](O[C@H]2C[C@@](C)(OC)[C@@H](O)[C@H](C)O2)[C@H](C)[C@@H](O[C@@H]2O[C@H](C)C[C@H](N(C)C)[C@H]2O)[C@](C)(O)C[C@@H](C)C(=O)[C@H](C)[C@@H](O)[C@]1(C)O` [Erythromycin], the fractional viability is 1.08 (2uM) and 0.961 (10uM).

With `COc1ccc([C@@H]2CC(=O)c3c(O)cc(O)cc3O2)cc1O` [Hesperetin], the fractional viability was determined as 0.924 (2uM) and 1.12 (10uM).

Turning to `Nc1c(CC(=O)O)cccc1C(=O)c1ccccc1` [Amfenac Sodium Monohydrate], the fractional viability was 1.04 (2uM) and 0.997 (10uM).

As for `CC(C)(C)C(=O)Nc1ccc2c(c1)C(=O)C(=O)c1ccccc1-2`, the fractional viability was 0.181 (2uM) and 0.0604 (10uM).

For the compound `NC(=O)c1ccc(N(C(N)=O)c2c(F)cccc2F)nc1-c1ccc(F)cc1F`, the fractional viability is, setting by setting: (2uM) 1.19; (10uM) 1.05.

For `CC(=O)Oc1ccccc1C(=O)Nc1ncc([N+](=O)[O-])s1` [Nitazoxanide], the fractional viability (2uM) turned out to be 1.24 and the fractional viability (10uM) turned out to be 0.682.

With `CCCc1cc(C)[nH]c(=O)c1CNC(=O)c1cc(-c2ccc(N3CCN(C(C)C)CC3)nc2)cc2c1cnn2C(C)C`, the fractional viability (2uM) worked out at 0.975 and the fractional viability (10uM) is 0.234.

As for `Cc1c(C(=O)Nc2ccc(Oc3ccnc4[nH]cc(-c5ccccc5)c34)c(F)c2)c(=O)n(-c2ccc(F)cc2)n1C`, the fractional viability was 0.85 (2uM) and 0.741 (10uM).

For `CN[C@@H](C)C(=O)N[C@H](C(=O)N1CCC[C@H]1c1nc(C(=O)c2ccc(F)cc2)cs1)C1CCCCC1`, the fractional viability by setting is: (2uM) 0.719; (10uM) 0.643.

Take `COc1nccc(-c2c(-c3ccc(F)cc3)ncn2C2CCC(O)CC2)n1` (stereo unspecified): the fractional viability runs as follows: (2uM) 0.999; (10uM) 0.786.

Take `COc1c(C)c(C(=O)c2ccc(N)c(C(=O)O)c2)n2ccccc12`: the fractional viability reads like this: (2uM) 0.889; (10uM) 1.04.

As for `COc1ccc2c(c1)CCC1C2CCC2(C)C(NCCCCCCN3C(=O)C=CC3=O)CCC12` (stereo unspecified), the fractional viability amounted to 0.747 (2uM) and 0.738 (10uM).

`COc1ccc(-c2ccc3c(N4CCOC[C@@H]4C)nc(N4CCOC[C@@H]4C)nc3n2)cc1CO`: the fractional viability (2uM) is 0.325 and the fractional viability (10uM) is 0.376.

For the compound `CC(C)C[C@H](NP(=O)(O)O[C@@H]1O[C@@H](C)[C@H](O)[C@@H](O)[C@H]1O)C(=O)N[C@@H](Cc1c[nH]c2ccccc12)C(=O)O` [Phosphoramidon Disodium Salt], the fractional viability runs as follows: (2uM) 0.899; (10uM) 0.879.

Consider `O=C(NC[C@H]1CN(c2ccc(N3CCOCC3=O)cc2)C(=O)O1)c1ccc(Cl)s1` [Rivaroxaban], for which the fractional viability worked out at 1.11 (2uM) and 1.04 (10uM).

Consider `C[C@@H]1C[C@H]2[C@@H]3C[C@H](F)C4=CC(=O)C=C[C@]4(C)[C@@]3(F)[C@@H](O)C[C@]2(C)[C@@]1(O)C(=O)CO` [Flumethasone], for which the fractional viability reads like this: (2uM) 1.1; (10uM) 0.852.

The compound `COC(=O)c1ccc2c(c1)nc(NC(=O)c1ccccc1)n2CCCc1ccccc1` displayed a fractional viability (2uM) of 0.792 and a fractional viability (10uM) of 0.709.

Take `CN1CCN(Cc2ccc(Nc3ncc(Cl)c(Nc4ccccc4S(=O)(=O)N(C)C)n3)cc2)CC1`: the fractional viability reads like this: (2uM) 0.451; (10uM) 0.421.

As for `c1ccc(NCc2ccc(CNc3ccccn3)cc2)nc1`, the fractional viability by setting is: (2uM) 1.07; (10uM) 0.852.

Regarding `Cc1nnc(C(=O)NC(C)(C)c2nc(C(=O)NCc3ccc(F)cc3)c(O)c(=O)n2C)o1` [Raltegravir (MK-0518)], the fractional viability was 1.12 (2uM) and 0.874 (10uM).

On to `N=C(NCCCCCCNC(=N)NC(=N)Nc1ccc(Cl)cc1)NC(=N)Nc1ccc(Cl)cc1` [Chlorhexidine HCl], for which the fractional viability worked out at 0.986 (2uM) and 0.359 (10uM).

`COc1c2occc2cc2ccc(=O)oc12` [Methoxsalen] showed a fractional viability (2uM) of 1.24 and a fractional viability (10uM) of 1.04.

With `CC(C)CC(N)=O` [Isovaleramide], the fractional viability by setting is: (2uM) 0.947; (10uM) 1.04.

For the compound `CN1CCN(C2=Nc3ccccc3Oc3ccc(Cl)cc32)CC1` [Loxapine Succinate], the fractional viability runs as follows: (2uM) 1.16; (10uM) 0.852.

`CCOC(=O)[C@@H](N)Cc1ccc(-c2cc(O[C@H](c3ccc(Cl)cc3-n3ccc(C)n3)C(F)(F)F)nc(N)n2)cc1` [Telotristat Etiprate (LX 1606 Hippurate)] returned a fractional viability (2uM) of 0.935 and a fractional viability (10uM) of 0.335.

(Values after the supplement of paper PMC5919970.)
